Test results taken from publication PMC3240821 (Structure (London, England : 1993), 2011).

Tested on: E. coli (strain BL21(DE3)-RIL)
Assay: Bacterial growth inhibition assay, E. coli
Format: cell-based, Escherichia coli
Details: 10 μM protein, M9 minimal media, OD600 after 18 hours

B1: K125A/K134A Scn mutant (protein, UniProt P80188 21-198, looked up, variant K125A K134A)
Neutrophil …: QDSTSDLIPAPPLSKVPLQQNFQDNQFQGKWYVVGLAGNAILREDKDPQKMYATIYELKEDKSYNVTSVLFRKKKCDYWIRTFVPGCQPGEFTLGNIKSYPGLTSYLVRVVSTNYNQHAMVFFKAVSQNREYFAITLYGRTKELTSELKENFIRFSKSLGLPENHIVFPVPIDQCIDG
  bacteriostatic effect on E. coli growth: ablates in vitro bacteriostatic activity

B2: Scn: mammalian Siderocalin, family archetype lipocalin (protein, UniProt P80188 21-198, looked up)
Neutrophil …: QDSTSDLIPAPPLSKVPLQQNFQDNQFQGKWYVVGLAGNAILREDKDPQKMYATIYELKEDKSYNVTSVLFRKKKCDYWIRTFVPGCQPGEFTLGNIKSYPGLTSYLVRVVSTNYNQHAMVFFKKVSQNREYFKITLYGRTKELTSELKENFIRFSKSLGLPENHIVFPVPIDQCIDG
  bacteriostatic effect on E. coli growth: bacteriostatic
